115 sequences from the BET-seq Pho4 binding data (Le et al. 2018) can be followed below.

Some of the results follow. The energies were worked out here from pooled read counts, against the library average; single values are noisy.

The target in this test is T1, Pho4 (S. cerevisiae) (UniProt P07270).
T1 sequence: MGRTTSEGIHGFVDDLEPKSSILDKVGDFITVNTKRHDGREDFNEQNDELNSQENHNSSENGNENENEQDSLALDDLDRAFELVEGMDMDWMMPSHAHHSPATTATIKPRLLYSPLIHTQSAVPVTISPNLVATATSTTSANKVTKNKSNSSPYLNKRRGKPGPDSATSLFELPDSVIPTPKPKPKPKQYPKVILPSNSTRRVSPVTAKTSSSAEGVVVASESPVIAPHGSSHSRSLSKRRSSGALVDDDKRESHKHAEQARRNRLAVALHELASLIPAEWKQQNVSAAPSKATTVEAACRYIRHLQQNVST
As to the kind of experiment: relative binding free energy (BET-seq); higher = weaker binding. The settings on record: reference: library average.
Take TGGTGCACGTGGGACC: the “relative binding free energy” value is -0.09 kcal/mol. The figure for ATGGTCACGTGATTAT is 0.19 kcal/mol. In the case of TATGGCACGTGTTAGG it was 0.01 kcal/mol; in that of CCTGGCACGTGTGGTG, -0.03 kcal/mol.

As to TGTCTCACGTGAGCGG, the “relative binding free energy” value came to 0.25 kcal/mol. Regarding TTTATCACGTGAGTCT, the “relative binding free energy” value turned out to be 0.28 kcal/mol. In the case of GCCAGCACGTGTAGGG it was 0 kcal/mol; in that of CGTAGCACGTGGAAGT, -0.07 kcal/mol; in that of TTGTGCACGTGAGGGA, 0.19 kcal/mol.

As to GGGGTCACGTGAGTCT, the “relative binding free energy” value came to 0.2 kcal/mol. The figure for GGAGGCACGTGATCGG is -0.07 kcal/mol; for GCCTTCACGTGTGGTG it is 0.26 kcal/mol. In the case of TGCGGCACGTGAGTTA it was 0.02 kcal/mol; in that of TAATGCACGTGGGTGG, -0.17 kcal/mol; in that of ATGAGCACGTGTCAGG, -0.09 kcal/mol. Regarding GGATTCACGTGTTTTC, the “relative binding free energy” value worked out at 0.3 kcal/mol. The figure for TAAACCACGTGGGGTG is -0.24 kcal/mol; for AGTAGCACGTGTATGG it is -0.2 kcal/mol. Take TGATACACGTGATTTT: the “relative binding free energy” value is 0.17 kcal/mol. In the case of GGGTGCACGTGCTTTG it was -0.07 kcal/mol.

TGGGCCACGTGCTGAG: the “relative binding free energy” value is -0.1 kcal/mol.

For GTGAGCACGTGAGGTC, the “relative binding free energy” value came to 0.16 kcal/mol. In the case of GCCTACACGTGGGGGT it was -0.05 kcal/mol; in that of TTTGTCACGTGTTGAT, 0.06 kcal/mol. In the case of AGCAGCACGTGGCTGG it was -0.08 kcal/mol. In the case of TGGGCCACGTGTTAGT it was -0.08 kcal/mol; in that of TATGTCACGTGGAGAA, -0.05 kcal/mol; in that of CTTAGCACGTGCTGGG, -0.24 kcal/mol. As to AGACGCACGTGGGTGT, the “relative binding free energy” value is -0.31 kcal/mol. The figure for TATTGCACGTGGAAGA is -0.06 kcal/mol; for GTTATCACGTGATTTG it is 0.21 kcal/mol. In the case of TTAGACACGTGGGATT it was 0.05 kcal/mol.

Take TTTCGCACGTGTTTCT: the “relative binding free energy” value is 0.12 kcal/mol. The figure for TGGTTCACGTGATGAA is 0.4 kcal/mol. In the case of CTGGGCACGTGGGCCG it was -0.29 kcal/mol; in that of AGGTGCACGTGTCAGG, -0.08 kcal/mol; in that of TAGTTCACGTGGATGG, 0.29 kcal/mol. In the case of GTTAGCACGTGCGTGA it was -0.06 kcal/mol; in that of TACGGCACGTGGATGT, 0.17 kcal/mol; in that of GGTTGCACGTGAAGAA, 0.33 kcal/mol. On to AATGGCACGTGGCGGC, for which the “relative binding free energy” value is -0.27 kcal/mol.

Turning to TTAACCACGTGTATGG, the “relative binding free energy” value came to 0.04 kcal/mol.

As to TGTTTCACGTGGGCGT, the “relative binding free energy” value came to 0.17 kcal/mol. The figure for GTTGTCACGTGGTTCT is 0.22 kcal/mol; for GTGTGCACGTGGGCTA it is -0.09 kcal/mol. The figure for AGTGGCACGTGAGGGA is 0.11 kcal/mol. The figure for GGTGGCACGTGTAATA is 0.07 kcal/mol; for ATGCGCACGTGTGGTG it is -0.05 kcal/mol.

As to ATACTCACGTGGGGTA, the “relative binding free energy” value turned out to be 0.05 kcal/mol. The figure for AGAGTCACGTGTGGTC is 0.14 kcal/mol; for TGGTACACGTGTGATG it is 0.13 kcal/mol; for AAGGTCACGTGAGGGC it is 0.15 kcal/mol. In the case of GTGTACACGTGTTCGC it was 0.15 kcal/mol. With GTTAGCACGTGGGTAC, the “relative binding free energy” value was -0.11 kcal/mol.

CTGCTCACGTGGGGGT: the “relative binding free energy” value is -0.03 kcal/mol.

Turning to GAAGTCACGTGTCGTT, the “relative binding free energy” value is 0.23 kcal/mol. In the case of TCAGTCACGTGGAGGT it was 0.15 kcal/mol. GGGAGCACGTGGTTAT: the “relative binding free energy” value was -0.11 kcal/mol. The figure for CTTGTCACGTGTGTGG is 0.08 kcal/mol; for GGGATCACGTGAGTGC it is 0.22 kcal/mol; for AGGGTCACGTGACTTT it is 0.07 kcal/mol. In the case of TATTGCACGTGGGACG it was -0.1 kcal/mol; in that of ATCTGCACGTGGCAGG, -0.06 kcal/mol. As to TTACACACGTGTTGTG, the “relative binding free energy” value was -0.15 kcal/mol. The figure for TTATACACGTGGTTGG is -0.01 kcal/mol; for GGTTGCACGTGTGCCT it is 0.1 kcal/mol; for TCTGGCACGTGGTAAG it is -0.11 kcal/mol. In the case of CAGTTCACGTGGTGTG it was 0.17 kcal/mol; in that of GGTGTCACGTGGGACG, 0.05 kcal/mol.

On to GTTTTCACGTGCATTT, for which the “relative binding free energy” value amounted to 0.29 kcal/mol. In the case of GAAGACACGTGGAGTG it was 0.07 kcal/mol.

As for TTGTACACGTGATTGC, the “relative binding free energy” value worked out at 0.18 kcal/mol. Consider TATGGCACGTGATATA, for which the “relative binding free energy” value is -0.22 kcal/mol.

With TGATGCACGTGTAGTT, the “relative binding free energy” value came out at 0.04 kcal/mol. The figure for TGGGACACGTGAGTCT is 0.15 kcal/mol; for CGGGTCACGTGGGCAT it is -0.15 kcal/mol.

With GCGGTCACGTGGTTGC, the “relative binding free energy” value came to 0.07 kcal/mol. In the case of TAGGCCACGTGGAAAG it was 0.15 kcal/mol. The figure for ATGCTCACGTGGCGTG is -0.01 kcal/mol; for GTTTTCACGTGTCAAT it is 0.37 kcal/mol; for GATGTCACGTGAAAGT it is 0.36 kcal/mol. In the case of GTCGTCACGTGGTGAG it was 0.11 kcal/mol; in that of GAAGGCACGTGAATTT, 0.35 kcal/mol. Consider GGTTTCACGTGATTTG, for which the “relative binding free energy” value was found to be 0.47 kcal/mol. For TGAGCCACGTGAGGTG, the “relative binding free energy” value turned out to be 0.05 kcal/mol.

As to GTGCGCACGTGTGGCA, the “relative binding free energy” value was -0.15 kcal/mol. The figure for GAGGACACGTGGGGCA is -0.01 kcal/mol; for TCGTTCACGTGGGGAA it is 0.21 kcal/mol; for ATTTTCACGTGATCGG it is 0.32 kcal/mol. In the case of ATAATCACGTGTGTAA it was 0.15 kcal/mol; in that of TCATTCACGTGAGGAT, 0.43 kcal/mol; in that of CGTGTCACGTGTTCGT, -0.03 kcal/mol.

On to GGCGACACGTGATAGT, for which the “relative binding free energy” value was determined as 0.19 kcal/mol.

Take GTGGACACGTGGCCGG: the “relative binding free energy” value was found to be 0 kcal/mol. In the case of GATTGCACGTGAGTGT it was 0.23 kcal/mol. For the sequence ATGTTCACGTGTCGGC, the “relative binding free energy” value worked out at 0.27 kcal/mol. In the case of GCGTGCACGTGCTGGT it was -0.17 kcal/mol. In the case of AAAGGCACGTGTGTGT it was -0.15 kcal/mol; in that of TTTCGCACGTGGGTTC, -0.13 kcal/mol; in that of TGGTACACGTGTATTA, 0.08 kcal/mol.

In the case of GGGCACACGTGGAGTG, the “relative binding free energy” value is 0.1 kcal/mol. As to TGTATCACGTGTGCTC, the “relative binding free energy” value was determined as 0.17 kcal/mol. In the case of CATAGCACGTGGGGTT it was -0.19 kcal/mol. In the case of GTGCCCACGTGGTGTG, the “relative binding free energy” value was -0.22 kcal/mol.

With CGGAGCACGTGGGGGC, the “relative binding free energy” value was -0.25 kcal/mol.

GTGATCACGTGGGATG: the “relative binding free energy” value is 0.05 kcal/mol.

As for CGCGGCACGTGTGTGT, the “relative binding free energy” value was -0.02 kcal/mol. The figure for TGGATCACGTGAATGA is 0.48 kcal/mol.

For the sequence ATTGACACGTGTAGTA, the “relative binding free energy” value was -0.02 kcal/mol. Regarding ACGCGCACGTGTGGGG, the “relative binding free energy” value is -0.09 kcal/mol.

As to TGTGCCACGTGTAGAA, the “relative binding free energy” value was -0.05 kcal/mol. In the case of TGTTCCACGTGTTCTT it was 0.02 kcal/mol.

On to ATTGGCACGTGTACTA, for which the “relative binding free energy” value is -0.05 kcal/mol. In the case of GTGTTCACGTGTCCGT it was 0.22 kcal/mol; in that of TTTGGCACGTGTTGGA, -0.06 kcal/mol.
